Assay [1] can be described thus: qHTS assay for small molecules that induce genotoxicity in human embryonic kidney cells expressing luciferase-tagged ATAD5 - cell viability (AID 651634; calls by dose curve; note: nearly all actives have a fitted effect of over 25% in size). The procedure, abridged: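 After 15.5 hr incubation with compound at 37C, 5% CO2, HEK293T ATAD5-luciferase cells received CellTiter-Fluor reagent; fluorescence intensity was quantified following 30 min at 37C.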

Assay [2] can be described thus: A CellTox Green Cytotoxicity Assay to monitor cytotoxicity in HEK293 cells - 24 hour (AID 1224875). Note: nearly all actives have a fitted effect of over 45% in size. Put shortly: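 Dead-cell fluorescence measured kinetically: asymmetric cyanine dye, HEK293, 600 cells/well, 5 h settle, 23 nL cpd/DMSO, 37 C, reads 0–40 h every 8 h.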
Assay [3] can be described thus: qHTS assay to identify small molecule antagonists of the androgen receptor (AR) signaling pathway using the MDA cell line - cell viability counter screen (AID 743041; note: nearly all actives have a fitted effect of over 45% in size). The procedure, abridged: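 qHTS viability read-out; MDA-kb2 AR-luc; R1881-stimulated; 16 h exposure at 37C, 0% CO2; CellTiter-Fluor, 30 min; fluorescence intensity.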
Assay [4] is described as follows: qHTS assay to identify small molecule antagonists of the TGF-beta/Smad signaling pathway - cell viability counter screen (AID 1346824). Note: nearly all actives have a fitted effect of over 50% in size. Put shortly:
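SBE-bla HEK 293T cells were plated overnight at 37 C, then given compounds in DMSO plus TGF-beta1 (added as 0.25 ng/mL solution) for 5 hr. After the bla read, CellTiter-Glo was added to the same wells and luminescence read after 30 min at room temperature.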
(Quantitative high-throughput screening tests each substance at several concentrations.)

Assay [5] is described as follows: qHTS assay to identify small molecule antagonists of the peroxisome proliferator-activated receptor gamma (PPARg) signaling pathway - cell viability counter screen (AID 743194). Note: nearly all actives have a fitted effect of over 55% in size. Put shortly: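 PPARg-UAS-bla HEK293H cells were plated, rested 5 h at 37 C, then treated with compounds plus rosiglitazone (50 nM final) for 17 h at 37 C; viability was then read by CellTiter-Glo luminescence after 30 min at room temperature.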

Results on 4 compounds are retold here after PubChem BioAssay (Tox21).

Structures are written as SMILES. Inconclusive results are not listed. Unless noted, calls come from the whole dose curve; as a rule, active = well fitted curve in the direction sought with a large enough effect in the repeat runs; inconclusive = weak or mixed curves; inactive = no such curve, though single readings can be large; an effect the other way counts as inactive or inconclusive. Some structures have more than one record in an assay (separate samples or runs), and their calls can disagree. Not every entry of the source has a single result; some have several. Only these are listed. The source may hold further records. Values that stand side by side repeat one measurement (runs, samples, wells, individuals or studies). Records carry a tag for their origin. Letters hold for one entry only.
Potency is the fitted concentration of half-maximal effect.

As for `C[C@]12C/C(=C/O)C(=O)C[C@@H]1CC[C@@H]1[C@@H]2CC[C@@]2(C)[C@H]1CC[C@]2(C)O`, the Potency result in assay [1] was “inactive [sample A] and active: 43.7 µM [sample B]”; in assay [2] it was “active: 24.8 µM [sample A] and inactive [sample B]”.
Consider `CC(C)N(C(=O)CCl)c1ccccc1`, for which the Potency result was “inactive [sample A] and active: 54.5 µM [sample B]” in assay [3]; “inactive [sample A] and active: 49 µM [sample B]” in assay [4].
Regarding `CN(C)C(=S)SSC(=S)N(C)C`, in assay [5], the Potency entry is “inactive [sample A] and active: 29.8 µM [sample B]”.
In the case of `O.O.O.O.O.O.O.O=S(=O)([O-])[O-].[Co+2]`, in assay [1], the Potency result was “active: 26.6 µM [sample A] and inactive [sample B]”.
